Where “and” joins values, the source holds several entries; their conditions need not be identical. Equal values may be shown once. Screen size: about 410,000 compounds; about 310 (0.076%) were called active. Inconclusive results, whose numbers are uncertain, are shown with a selection of clear calls. Calls follow the shape of the dose curve; as a rule, active = well fitted curve in the direction sought with a large enough effect; inconclusive = small, poorly fitted or top-dose-only effect; inactive = flat fitted curve, though single readings scatter. Potencies of inconclusive entries are doubtful fits and often do not repeat.
target: DNA dC->dU-editing enzyme APOBEC-3G (Homo sapiens) (UniProt Q9HC16); assay: qHTS for Inhibitors of Vif-A3G Interactions: qHTS; conditions: HeLa A3G-eYFP + Vif (tagged APOBEC3G with the HIV-1 protein that degrades it), YFP fluorescence, overnight; series mostly up to 46.1 µM; also: nearly all actives have a fitted effect of over 60% in size
Method in brief: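 Read-out is eYFP fluorescence (Ex 488/Em 500-530) from Vif-expressing HeLa A3G-eYFP cells; more signal means A3G escaped Vif-mediated degradation. Cells plated overnight, compound pinned in, incubated overnight at 37 deg C.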
Potency is read from the fitted curve at half-maximal effect; tags tell the direction and shape of the fitted curve.

UniProt Q9HC16, sequence (Q9HC16 whole entry, looked up): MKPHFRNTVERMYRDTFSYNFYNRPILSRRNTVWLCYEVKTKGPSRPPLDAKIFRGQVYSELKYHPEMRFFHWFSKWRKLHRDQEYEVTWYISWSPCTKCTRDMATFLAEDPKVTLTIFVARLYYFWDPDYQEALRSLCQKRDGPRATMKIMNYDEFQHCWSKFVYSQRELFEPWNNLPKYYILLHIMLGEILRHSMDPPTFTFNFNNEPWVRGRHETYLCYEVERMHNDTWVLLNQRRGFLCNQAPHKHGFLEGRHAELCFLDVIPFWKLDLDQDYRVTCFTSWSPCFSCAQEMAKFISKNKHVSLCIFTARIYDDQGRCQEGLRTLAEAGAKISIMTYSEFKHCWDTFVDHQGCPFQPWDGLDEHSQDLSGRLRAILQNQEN

| Structure (SMILES) | Potency |
| --- | --- |
| C=CCNc1nc2cc(-c3ccc(C(=O)N4CCOCC4)cc3)sc2c(=O)n1C | inconclusive: 10 µM [inhibitor, partial curve] |
| CCCn1c(Nc2ccccc2C)nc2ccccc21 | inconclusive: 6.31 µM [inhibitor, single point] |
| CSc1nc(N2CCOCC2)nc2ccc(C)cc12 | inactive |
| COc1ccc(NC(=O)c2nn(C)cc2[N+](=O)[O-])cc1 | inconclusive: 35.5 µM [inhibitor, partial curve, poor fit] |
| O=C(Nc1cc(=O)[nH]c(=O)[nH]1)c1cccc(C(F)(F)F)c1 | inconclusive: 35.5 µM [inhibitor, partial curve, poor fit] |
| Nc1ccc2nc3c(=O)n(C4CCCCC4)c(=O)[nH]c3nc2c1 | inconclusive: 3.55 µM [inhibitor, partial curve, poor fit] |
| COc1ccc(NC(=O)C2(C)Cc3c(-c4ccc(NC(C)=O)cc4)ccnc3O2)cn1 (stereo unspecified) | inconclusive: 17.8 µM [inhibitor, single point] |
| CN(C)c1ccc(/C=C2\C(=N)N3N=C(CC(=O)N4CCCCC4)SC3=NC2=O)cc1 | inconclusive: 2.51 µM [inhibitor, full curve, poor fit] |
| CN(C)c1ccc(/C=C2\N=C(c3ccc(Cl)c([N+](=O)[O-])c3)NC2=O)cc1 | inconclusive: 20 µM [inhibitor, single point] |
| CCCN(CCC)C(=O)CC(c1ccccc1)c1cc(C)ccc1O (stereo unspecified) | inactive |
| CC(=O)Nc1ccc(N=Cc2c(O)c(C(=O)Nc3ccccc3)cc3ccccc23)cc1 | inactive |
| Cc1cc(C(=O)CCl)c(C)n1-c1c(C)n(C)n(-c2ccccc2)c1=O | inconclusive: 35.5 µM [inhibitor, single point] |
| CC(C)OCCCN1C(=O)c2[nH]nc(-c3ccccc3O)c2C1c1ccccc1F (stereo unspecified) | inactive |
| CN1CCN(C2=C(Cl)C(=O)N(c3ccc(Cl)cc3)C2=O)CC1 | inconclusive: 35.5 µM [inhibitor, single point] |
| Cc1ccc(NC(=O)CO/N=C/c2ccc(N(C)C)cc2)cc1 | inconclusive: 25.1 µM [inhibitor, single point] |
| CCOc1ccc(S(=O)(=O)Nc2cc3c(C(=O)OC)c(COC)oc3c3ccccc23)cc1 | inconclusive: 0.631 µM [inhibitor, full curve, poor fit] |
| COc1ccc(/C=C/C(=O)c2oc3ccc(F)cc3c2C)cc1 | inactive |
| COc1ccc2[nH]cc(/C=C/C(=O)c3ccccc3)c2c1 | inconclusive: 35.5 µM [inhibitor, single point] |
| COc1cccc(Oc2cnc(N)nc2-c2ccc(OC)cc2O)c1 | inconclusive: 2.24 µM [inhibitor, full curve, poor fit] |
| CC(C)=CCn1c2ccc(NC(=O)NCc3ccc(F)cc3)cc2c(=O)n1C | inconclusive: 5.01 µM [inhibitor, full curve] |
| Cc1cc(/C=C2\SC(=S)N(C)C2=O)c(C)n1-c1ccc(O)cc1 | inconclusive: 15.8 µM [inhibitor, partial curve, poor fit] |
| CC(=O)c1cccc(NS(=O)(=O)c2cc(-c3cnc(C4CC4)o3)ccc2C)c1 | inconclusive: 3.55 µM [inhibitor, full curve, poor fit] |

| Structure (SMILES) | Potency |
| --- | --- |
| O=C(N/N=C/c1cc([N+](=O)[O-])ccc1Cl)c1cnccn1 | inconclusive: 5.01 µM [inhibitor, full curve, poor fit] |
| Cc1ccc(N(CC(=O)Nc2cc(C)ccc2C)S(=O)(=O)c2c(C)noc2C)cc1 | inactive |
| CC[n+]1c(/C=C/Nc2ccccc2)oc2ccccc21 | active: 7.94 µM |
| CCN(CC)c1ccc(C(=O)NCc2ccc3c(c2)CCN3C(=O)c2ccc(F)cc2)cc1 | inconclusive: 3.55 µM [inhibitor, single point] |
| COc1cccc(OCc2nc3ncc(Br)cc3[nH]2)c1 | inconclusive: 1.78 µM [inhibitor, full curve, poor fit] |
| COCCNCCCCOc1ccc(Br)cc1C | inactive |
| COc1ccc(C2=NOC(C(=O)NCc3ccco3)C2)cc1 (stereo unspecified) | inconclusive: 7.08 µM [inhibitor, partial curve, poor fit] |
| CCOC(=O)C1CCCN(C(=O)c2ccccc2NC(C)=O)C1 (stereo unspecified) | inconclusive: 3.16 µM [inhibitor, single point] |
| COc1ccc(Cl)cc1N(C)C(=O)c1cc2c(=O)oc3ccc(C)cc3c2s1 | inconclusive: 35.5 µM [inhibitor, single point] |
| CCOC(=O)CC(=O)CSc1nc(-c2ccc3c(c2)OCO3)cc(C(F)(F)F)c1C#N | inconclusive: 35.5 µM [inhibitor, single point] |
| Cc1ccnc2c1ccc1c(C)ccnc12 | inconclusive: 35.5 µM [inhibitor, single point] |
| Nc1c(C(=O)Nc2ccccc2F)sc2nc3c(cc12)CCCCCC3 | inconclusive: 1.12 µM [inhibitor, full curve] |
| CC1(C(=O)NCCc2ccccc2)Cc2c(-c3cccc(C(F)(F)F)c3)ccnc2O1 (stereo unspecified) | inconclusive: 3.98 µM [inhibitor, full curve] |
| O=C(Nc1ccc(Br)cc1F)N1CC=C(c2c[nH]c3ccccc23)CC1 | inconclusive: 1.78 µM [inhibitor, full curve, poor fit] |
| CCOc1ccccc1N(C)C(=O)Cn1ncc2c([nH]c3ccc(C)cc32)c1=O | inconclusive: 20 µM [inhibitor, single point] |
| Cc1nn(-c2ccccc2)c(C)c1/C=N/NC(=O)c1cc(-c2ccc(Cl)s2)[nH]n1 | inconclusive: 1.12 µM [inhibitor, full curve, poor fit] |
| Cc1cc(OCC(O)CN2CCN(c3cccc(Cl)c3)CC2)ccc1Cl (stereo unspecified) | inactive |
| CCOc1cc2c(cc1C(C)(C)C)NC(=O)CS2 | inconclusive: 22.4 µM [inhibitor, single point] |
| COc1cc2c3nnc(-c4ccc(F)cc4)c-3cn(Cc3ccccc3)c2cc1OC | inconclusive: 5.62 µM [inhibitor, single point] |
| COc1ccc(S(=O)(=O)Nc2cc3c(C(=O)OC(C)C)c(C)oc3c3ccccc23)cc1 | inconclusive: 6.31 µM [inhibitor, single point] |
| COc1ccc(-c2ccc(CCC(=O)O)n2-c2ccccc2O)cc1 | inconclusive: 28.2 µM [inhibitor, single point] and inconclusive: 25.1 µM [inhibitor, single point] |
| O=C(NC1=NCCS1)C1CCN(S(=O)(=O)c2cc([N+](=O)[O-])ccc2Cl)CC1 | inconclusive: 35.5 µM [inhibitor, single point] |

| Structure (SMILES) | Potency |
| --- | --- |
| COC(=O)c1c(NC(=O)CN(C)CC(=O)Nc2ccc(C)cc2)sc2c1CCC(C)C2 (stereo unspecified) | inactive |
| CN(C)c1ccc(N=Cc2cccc3ccccc23)cc1 | inactive |
| COCCNC(=O)c1ccc2c(c1)ncn2-c1cccc(C)c1 | inconclusive: 11.2 µM [inhibitor, partial curve, poor fit] |
| CC(C)c1ccc(NC(=O)CSc2nc3ccccc3nc2Cc2ccccc2)cc1 | inactive |
| CCC(C)Sc1cccc(-c2nc3ccccn3c2NCc2ccccc2)c1 (stereo unspecified) | inconclusive: 35.5 µM [inhibitor, partial curve, poor fit] |
| COc1ccc(N(C(=O)CCl)C(C(=O)NC2CCCCC2)c2cccnc2)cc1 (stereo unspecified) | inconclusive: 11.2 µM [inhibitor, single point] |
| CC1(C)CC(=O)C2=C(C1)OC(N)=C(C#N)C21CCN(Cc2ccccc2)CC1 | inconclusive: 22.4 µM [inhibitor, single point] |
| Nc1cc(OC(=O)c2c(F)cccc2Cl)nn1S(=O)(=O)c1ccccc1 | inactive |
| CC1(C(=O)Nc2cccc(Oc3ccccc3)c2)Cc2c(-c3ccc4c(c3)OCO4)ccnc2O1 (stereo unspecified) | inconclusive: 3.16 µM [inhibitor, full curve, poor fit] |
| C/C=C\C=C/C(=O)Nc1cccc(C2=NOC3(C2)C[C@@H](C(N)=O)N(C(=O)COc2ccc(Cl)cc2)C3)c1 (stereo partly specified) | inactive |
| COc1ccc(CS(=O)(=O)/C(Cl)=C(/Cl)C(=O)Nc2ccc(OC)nc2)cc1 | inconclusive: 2.51 µM [inhibitor, full curve, poor fit] |
| c1ccc(SSc2ccccn2)nc1 | inactive |
| O=S(=O)(c1ccc(Br)cc1)c1nnn2c1nc(NCc1ccc3c(c1)OCO3)c1sccc12 | inactive |
| COc1cccc(Oc2ccc(C(F)(F)F)cc2NC(=O)CN2C(=O)NC3(CCCC3)C2=O)c1 | inconclusive: 35.5 µM [inhibitor, single point] |
| Fc1ccc(/C=N/Nc2nc3ccccc3[nH]2)cc1F | inactive |
| COc1ccc(CC(=O)NNC(=O)CCC(=O)Nc2cc(C)ccc2C)cc1 | inactive |
| COc1cc(C(=O)Nc2ccc(C)cc2)c2ccccc2n1 | inconclusive: 0.562 µM [inhibitor, full curve, poor fit] |
| Cc1ccc(S(=O)(=O)N2c3ccccc3CC2C)cc1 (stereo unspecified) | inconclusive: 10 µM [inhibitor, partial curve] |
| COc1ccc(C2c3ccc4ccccc4c3Oc3ncn4nc(Cc5ccccc5)nc4c32)cc1OC (stereo unspecified) | inconclusive: 35.5 µM [inhibitor, single point] |
| Cc1ccc(CNCc2cccn2-c2nnc(N3CCCC3)s2)cc1 | inactive |
| COC(=O)/C=C1/S/C(=N/NC(=O)c2ccc(Cl)cc2Cl)NC1=O | inconclusive: 15.8 µM [inhibitor, single point] |
| Cn1c(=O)oc2cc(S(=O)(=O)N3CCN(c4cccc(Cl)c4)CC3)ccc21 | inconclusive: 15.8 µM [inhibitor, single point] |
